Data from the supplement of paper PMC3334620.
In all, about 33,000 sequences were measured (“E-score (-0.5 to 0.5)”: median about -0.043, highest 2% from about 0.37 on). The list shows a part of the results.

Biological target: T1, Upc2 (UniProt Q12151)
T1 sequence: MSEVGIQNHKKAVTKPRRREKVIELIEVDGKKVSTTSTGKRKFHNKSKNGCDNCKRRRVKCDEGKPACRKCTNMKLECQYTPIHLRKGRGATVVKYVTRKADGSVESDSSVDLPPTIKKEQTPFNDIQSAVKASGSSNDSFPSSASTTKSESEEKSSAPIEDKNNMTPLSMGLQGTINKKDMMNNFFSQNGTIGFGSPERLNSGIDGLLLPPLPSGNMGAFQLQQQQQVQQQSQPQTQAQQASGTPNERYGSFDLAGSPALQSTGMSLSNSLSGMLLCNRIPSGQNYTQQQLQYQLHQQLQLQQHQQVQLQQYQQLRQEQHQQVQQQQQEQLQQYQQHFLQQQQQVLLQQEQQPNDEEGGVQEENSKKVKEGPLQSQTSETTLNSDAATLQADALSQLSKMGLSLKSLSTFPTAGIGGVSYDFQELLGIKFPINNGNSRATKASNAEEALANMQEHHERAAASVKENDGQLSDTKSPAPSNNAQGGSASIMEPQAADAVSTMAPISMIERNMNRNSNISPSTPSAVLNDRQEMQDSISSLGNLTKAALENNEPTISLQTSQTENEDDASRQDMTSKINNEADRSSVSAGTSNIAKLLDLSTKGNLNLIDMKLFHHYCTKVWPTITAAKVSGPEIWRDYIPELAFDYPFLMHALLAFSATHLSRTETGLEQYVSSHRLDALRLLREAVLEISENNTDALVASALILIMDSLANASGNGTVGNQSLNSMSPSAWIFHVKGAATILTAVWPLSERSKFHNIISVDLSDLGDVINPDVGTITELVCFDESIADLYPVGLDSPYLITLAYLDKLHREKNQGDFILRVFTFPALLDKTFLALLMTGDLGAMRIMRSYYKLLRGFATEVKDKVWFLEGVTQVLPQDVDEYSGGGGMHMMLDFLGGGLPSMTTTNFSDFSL
Assay: PBM E-score (8-mer binding enrichment) (E-score (-0.5 to 0.5)); higher = stronger / more preferred TF binding; most listed sequences are background and not binding sites
Conditions: protein concentration: 200 nM; construct: GST-full length
In short: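 The E-score, a modified Wilcoxon-Mann-Whitney statistic, was computed by the Universal PBM Analysis Suite for every ungapped eight-base word pooled with its reverse complement. Scans behind it were normalised with masliner after bound GST-tagged yeast transcription factors were detected with fluorescent anti-GST. The proteins, at about 100-200 nM, had been applied to universal all-10-mer Agilent arrays made double-stranded by primer extension.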

Sequence	PBM E-score
ATCCCGAC	-0.0759
ATTGGTAG	-0.19
GCCGTAGA	0.189
GGTAAGTA	-0.00615
ATGCGTTA	0.201
CGTAGTAG	0.108
ATACGGAG	0.411
ATTTCGAG	0.0471
AATAGCAA	-0.0979
GAATCGCA	-0.0934
CGTAGCGC	0.256
GCTTCTTA	0.0291
CAGTTTAC	0.158
AGTTTAGC	0.00286
AATGCACG	0.00607
GACCTCGC	0.198
GAAGACAC	0.0892
CCGATGGA	0.109
CGTTTAAA	0.47
AAGTCACG	-0.12
ATAATCCC	-0.0168
CAAAATCC	-0.0221
ATAACCAA	-0.0125
AGCCACAA	-0.0358

Sequence	PBM E-score
CGAAGTTC	0.181
AACCCGTG	-0.071
AACTTGCC	-0.177
TCTAAGCA	-0.17
AATAGTGG	-0.132
AAAAATCT	0.181
GCAACCGA	0.0824
GGATGTGA	-0.198
CGGTCGGC	0.19
AGAGTTAA	-0.114
GAACCCGC	0.053
AACGAGGA	0.428
GGAATTCC	-0.332
AGAGTCGG	-0.0674
TCTACGCA	-0.0325
GAACTCGA	-0.164
CACCAATG	-0.0675
AGAAAAGA	-0.0124
CCCTCGTC	0.122
CGTCCTGA	-0.0997
CTCAAAAC	-0.0273
CGGGATGA	-0.11
CAGTTTAG	-0.0566
CAAACCTC	-0.242

Sequence	PBM E-score
GTGGCTGA	-0.244
GTAGGGAA	-0.00628
GTCTTACA	0.0332
ACAGCTTC	0.145
CAAAACCA	-0.103
GAATCTTA	-0.00215
ATAAGTGC	-0.0577
GATTCACA	-0.121
AAAACCTG	-0.00544
GTCTCAAA	-0.00729
CAATCTGC	-0.113
GATGAGTA	-0.0548
CAGCGTCC	-0.0441
CAAACACC	0.0462
ATTCCGGC	-0.189
AACGCTCA	0.181
CCACTTAG	-0.174
CCTGCCCC	-0.121
CTATTATC	0.131
CTCTAAGA	-0.104
GACTCAAA	0.125
AATCAGCA	-0.233
ACAACATA	0.0204
GACGACCA	0.071

Sequence	PBM E-score
AATTTGTA	0.0573
TAGCTCGA	-0.13
CCTTCTGC	-0.428
AATTCGCG	0.18
AGGATAAA	-0.0126
ACCAACGC	-0.14
AGGAAACA	-0.0301
CTGATGGC	-0.121
ATTGTTAG	-0.0129
GTATTCTA	0.106
GCCGGTAA	0.0358
CCGGCCTC	-0.136
CATCTCGA	-0.144
ATAGTTCC	-0.179
AACTAACT	-0.0449
GCAGAACC	-0.0127
CAAATTCG	0.0907
TCAAAAGA	-0.0424
ACCTGCGA	-0.0131
CTGCTCAC	0.00302
GAACTGTA	0.0776
CTGTCAAC	-0.0116
